Assay results published in the supplement of paper PMC4723716.
In all, about 3,600 compounds were measured (“viability index relative to DMSO control”: median about 0.81, lowest 2% from about 0.13 on). The list shows a part of the results.

What follows are compounds tested on Plasmodium falciparum NF54 stage V gametocytes (assay: viability index relative to DMSO control (fraction); higher = less gametocyte killing). Conditions: 1.25 µM, incubation time: 72 h.
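Further: 384-well serum-free SaLSSA: MitoTracker Red CMXRos staining with saponin lysis, high-content imaging, treated-well particle count divided by plate-mean count of DMSO wells.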

Row | SMILES | viability index
1 | c1ccc2c(NCCc3c[nH]cn3)c3ccccc3nc2c1 | 0.988
2 | COC(=O)c1ccc(C2C3=C(O)CC(c4ccc(F)cc4)CC3=Nc3ccccc3N2C(=O)c2ccccc2)cc1 (centres undefined) | 0.614
3 | Cc1nnc2sc(SCc3cccc([N+](=O)[O-])c3)nn2c1=O | 0.679
4 | COc1ccc(S(=O)(=O)N2CCN(C(=S)NC3CCCCC3)CC2)cc1 | 0.683
5 | O=S1(=O)CCC(O)c2ccsc21 (centres undefined) | 0.865
6 | CCOC(=O)c1c(NC(=O)CSc2nnc(CNC(=O)c3cccc(C)c3)n2-c2cccc(C)c2)sc2c1CCC2 | 0.834
7 | CC[n+]1c(C)n(-c2ccccc2)c2ccc(C3Nc4ccccc4S3)cc21 (centres undefined) | 0.803
8 | CCC(Sc1nc(C)cc(-c2ccccc2)n1)C(=O)Nc1cccc2ccccc12 (centres undefined) | 0.996
9 | COc1ccc(C[n+]2cc(-c3ccc(Cl)cc3)n3ccccc32)cc1 | 0.703
10 | CCOC(=O)c1cnc2ccccc2c1NCCCN(C)C | 0.849
11 | COc1cc2c(cc1OC)C1Cc3ccc(OC)c(OC)c3CN1CC2 (centres undefined) | 0.652
12 | Cc1cc(NC(=O)C2c3ccccc3C(=O)N(CC(C)C)C2c2cccs2)no1 (centres undefined) | 0.225
13 | C=CCSc1nnc2c(n1)[nH]c1ccc(OCC)cc12 | 0.656
14 | N#Cc1c2c(c(N3CCN(CCO)CC3)n3c1nc1ccccc13)CCC2 | 1.14
15 | COc1cc(C=NNc2nc3ccccc3[nH]2)ccc1O | 0.545
16 | CSC1=C(C#N)C(c2ccc(O)cc2)CC(=O)N1 (centres undefined) | 1.02
17 | COc1ccc(OC)c(NC(=O)COc2cc3ccccc3cc2C(=O)Nc2cc(OC)c(Cl)cc2OC)c1 | 0.295
18 | CCN(CC)CCCN(Cc1cc2ccc(C)cc2[nH]c1=O)C(=S)Nc1cccc(Cl)c1 | 0.703
19 | CSc1ccc(Cl)c(Cl)c1 | 0.703
20 | CC(=O)N(C1=C(N2CCOCC2)C(=O)c2ccccc2C1=O)c1ccc(Cl)c(Cl)c1 | 0.351
21 | N#Cc1c2c(c(N3CCN(Cc4ccc(F)cc4)CC3)n3c1nc1ccccc13)CCC2 | 0.745
22 | CCOC(=O)c1cccc(NC(=O)CC2C(=O)N(c3ccc(F)cc3)C(=O)N2CCC(C)C)c1 (centres undefined) | 0.51
23 | O=C(c1ccccc1F)N1CCN(Cc2ccccc2C(F)(F)F)CC1 | 0.94
24 | O=C1N(c2ccccc2)C[C@@H]2C[C@@H](c3ccc(C#CCCO)cc3)N3CCC[C@@]123 | 0.808

Row | SMILES | viability index
25 | CCCCCn1c(SCc2ccc(C)cc2)nc2cc(C(=O)NCc3ccco3)ccc2c1=O | 1.22
26 | Cc1ccc(-c2c3c4n(c(-c5ccc(Cl)cc5)cn4c2C(=O)Nc2ccccc2Cl)CCCC3)cc1 | 0.758
27 | COc1cccc(-c2cn3c(n2)sc2cc(C(=O)NC4CCN(Cc5ccccc5)CC4)ccc23)c1 | 0.964
28 | c1ccc(C2=Nc3ccccc3N=C(c3ccccc3)c3ccccc32)cc1 | 0.315
29 | N=c1c2c(n(Cc3ccc([N+](=O)[O-])cc3)c3c1CCC3)CCCC2 | 0.569
30 | CC12CCC(CN(CC(O)Cn3c4ccc(Br)cc4c4cc(Br)ccc43)C1)C2(C)C (centres undefined) | 0.829
31 | CC(CCc1ccccc1)NCC(O)c1cccc([N+](=O)[O-])c1 (centres undefined) | 0.498
32 | O=C1C=C(Nc2ccc(O)cc2)c2ccccc2C1=O | 0.942
33 | CCOC(=O)COC1=C(CCCCC2CCCCC2)C(=O)c2ccccc2C1=O | 0.779
34 | NC(=O)c1ccc(-n2nnnc2SCc2ccc(Cl)cc2)cc1 | 0.865
35 | N#CC(=CC=Cc1ccc([N+](=O)[O-])o1)c1nc2ccccc2[nH]1 | 0.0143
36 | Cc1ccc(C[n+]2cc(-c3ccc(C)cc3)n3c2CCC3)cc1 | 0.776
37 | Cc1cccc(CN2CCC(CNC(=S)Nc3ccc4nc(N5CCN(C)CC5)cc(C)c4c3)CC2)c1 | 0.956
38 | CCc1nc2nc(C)cc(Nc3ccc(I)cc3)n2n1 | 0.98
39 | CCCN(Cc1cc(OC)c2c(c1)OCO2)CC1CC1 | 0.914
40 | Cn1c(=O)c2c(nc(N3CCN(C(=O)Nc4ccc(F)cc4F)CC3)n2C)n(C)c1=O | 0.996
41 | CC(=O)N(C)C1=C(N2CCOCC2)C(=O)c2ccccc2C1=O | 0.18
42 | COc1ccc2nc(C)cc(Nc3ccc(Oc4ccc(Cl)c5ccccc45)c(Cl)c3)c2c1 | 0.591
43 | N#Cc1c(N)nc(SCC(=O)c2ccc(Cl)cc2)c(C#N)c1-c1ccco1 | 0.864
44 | CC(=NOC(=O)c1ccco1)c1cnccn1 | 0.914
45 | Cc1cc(Nc2ccc(C(=O)n3ccnc3)cc2)n2ncnc2n1 | 0.916
46 | CN(C)CCCNc1ncnc2c1[nH]c1ccc(Cl)cc12 | 0.874
47 | CN(C)CCCNc1c2ccccc2nc2ccccc12 | 0.0224
48 | O=C(Nc1ccc(-c2nc3cc(NC(=O)c4cccs4)ccc3[nH]2)cc1)c1cccs1 | 1.05

Row | SMILES | viability index
49 | Cc1ccnc(Nc2nc(-c3ccc(Cl)cc3)cs2)c1 | 0.938
50 | Cc1ccc(Nc2nc(N)c3ccccc3n2)cc1Cl | 0.638
51 | Cc1ccc(-c2nc3ncccc3o2)cc1NC(=O)COc1ccc(C(C)(C)C)cc1 | 0.928
52 | COc1cc2nc(SCC(C)C)n(CCCn3ccnc3)c(=N)c2cc1OC | 1.01
53 | COc1ccc(CCNC(=S)Nc2ccccc2C)cc1OC | 0.795
54 | CCOC(=O)C1=C(C)NC2=C(C(=O)C(C(=O)OCC)C(c3ccccc3OC)C2)C1c1cccs1 (centres undefined) | 0.656
55 | Cc1c(C)c(C)c(CNC(=S)NN)c(C)c1C | 0.78
56 | O[C@H]1[C@H]2c3cc4c(cc3CN3CCC(=C[C@@H]1O)[C@H]23)OCO4 | 0.722
57 | O=C(c1cccc([N+](=O)[O-])c1)c1ccc(Cl)c(Cl)c1 | 0.643
58 | O=C(C[n+]1ccccc1)NN=Cc1ccc(Cl)c(Cl)c1 | 0.857
59 | O=C(NCCCCCCNC(=O)Nc1nc(-c2ccc(F)cc2)cs1)Nc1nc(-c2ccc(F)cc2)cs1 | 0.663
60 | CCOC(=O)C1=C(C)N=c2sc(=Cc3ccc(I)o3)c(=O)n2C1c1ccccc1Cl (centres undefined) | 0.9
61 | Cc1cc(C)n(-c2ccc(NC(=O)C3CCN(Cc4cnc(C)s4)CC3)cc2)n1 | 0.933
62 | COc1ccc(NC(=O)c2cccc([N+](=O)[O-])c2C)cc1 | 0.939
63 | O=C(CN1CCC(NC(=O)c2cccc(F)c2)CC1)NC1CC1 | 0.837
64 | O=[N+]([O-])c1cc(C(F)(F)F)ccc1N1CCCN(C(=S)Nc2ccccc2)CC1 | 0.166
65 | COc1cccc(Nc2nc(NCC3CCCO3)c3ccccc3n2)c1 (centres undefined) | 0.736
66 | N#Cc1ccccc1N1CCCCC1 | 0.759
67 | Cc1ccc(NC(=O)c2cc(C(=O)c3cc(Cl)ccc3O)cn(-c3ccc(C)cc3C)c2=O)c(C)c1 | 0.767
68 | CCOC(=O)c1c(NC(=O)c2ccccc2)sc2c(O)c(CN(CC)CC)ccc12 | 0.223
69 | CC[n+]1c(C=C2Sc3ccc(C)cc3N2CCO)ccc2ccccc21 | 0.861
70 | Cc1ccc(Cn2c(=N)n(CC(O)c3ccc(Cl)c(Cl)c3)c3ccccc32)cc1 (centres undefined) | 0.168
71 | C(=NNc1nc2ccccc2[nH]1)c1cccc(Oc2ccccc2)c1 | 0.711
72 | CN1CCc2c(sc3nc(SCC(=O)NCCc4ccccc4)n(-c4ccc(Cl)cc4)c(=O)c23)C1 | 0.771

Row | SMILES | viability index
73 | CC[n+]1c(SC)ccc2cc(OC)ccc21 | 0.681
74 | COc1ccc(C2CC(=O)C3=C(C2)NC(C)=C(C(=O)OC2CCCC2)C3c2ccc(SC)cc2)cc1OC (centres undefined) | 0.842
75 | CC(=O)N1c2ccccc2C(C)(c2ccc(Br)cc2)CC1(C)C (centres undefined) | 0.938
76 | Clc1ccc(-c2c[n+](Cc3ccc(Cl)c(Cl)c3)c3n2CCC3)cc1 | 0.709
77 | CCN1C(=Cc2[se]c3ccccc3[n+]2CC)C=Cc2cc(OC)ccc21 | 1.01
78 | CCC(=O)N1CCc2cc(Br)cc(S(=O)(=O)N3CCN(CC)CC3)c21 | 1.06
79 | NNC(=O)C1CCCN1S(=O)(=O)c1ccc(Cl)cc1 (centres undefined) | 1.2
80 | CCCCN1C(=Cc2cccc[n+]2C)Sc2cc(NC(C)=O)ccc21 | 0.691
81 | CCCCc1ccc(Nc2ncnc3sc4c(c23)CCCC4)cc1 | 1.06
82 | COc1ccc(C=NNc2cc(C)nc3ccccc23)cc1 | 0.946
83 | CCCN1CCc2c(sc3nc(SC)n(-c4ccccc4)c(=O)c23)C1 | 0.888
84 | CCCCN(CCCC)S(=O)(=O)c1ccc(NC(=O)c2ccco2)cc1 | 0.669
85 | CC[n+]1c(C=CN(C)C)sc2ccccc21 | 0.859
86 | COC(=O)C1=CNC=C(C(=O)OC)C1c1ccc(Cl)c(Cl)c1 | 0.849
87 | COc1ccc(C2CC(=O)C3=C(C2)NC(C)=C(C(=O)OC2CCCC2)C3c2ccc([N+](=O)[O-])cc2)cc1OC (centres undefined) | 0.344
88 | O=C(CCl)Nc1ccc(S(=O)(=O)OCC(F)(F)C(F)F)cc1 | 0.628
89 | CCOc1ccc(C(=O)C[N+]2=C(C)c3ccc(C)n3CC2)cc1 | 0.742
90 | Oc1ccccc1C=NNc1nnc2c3ccccc3n(Cc3ccccc3)c2n1 | 0.355
91 | CCOC(=O)c1[nH]c2ccccc2c1N=NN(C)C | 0.663
92 | C[C@H](Nc1cncc(-c2ccc(Cl)cc2)n1)c1ccccc1 | 0.804
93 | Cc1ncc(CN2CCC(C(=O)Nc3ccc(-c4nc5ccccc5o4)cc3)CC2)s1 | 0.779
94 | O=C(CSc1cn(CCNC(=O)c2ccc(F)cc2)c2ccccc12)Nc1ccccc1F | 1.15
